The source of these data is PMC6294498, “The structural basis of CstF-77 modulation of cleavage and polyadenylation through stimulation of CstF-64 activity”.

In assay [1] the target is T1, CstF-77-Myc (human) (UniProt Q12996).
T1 sequence: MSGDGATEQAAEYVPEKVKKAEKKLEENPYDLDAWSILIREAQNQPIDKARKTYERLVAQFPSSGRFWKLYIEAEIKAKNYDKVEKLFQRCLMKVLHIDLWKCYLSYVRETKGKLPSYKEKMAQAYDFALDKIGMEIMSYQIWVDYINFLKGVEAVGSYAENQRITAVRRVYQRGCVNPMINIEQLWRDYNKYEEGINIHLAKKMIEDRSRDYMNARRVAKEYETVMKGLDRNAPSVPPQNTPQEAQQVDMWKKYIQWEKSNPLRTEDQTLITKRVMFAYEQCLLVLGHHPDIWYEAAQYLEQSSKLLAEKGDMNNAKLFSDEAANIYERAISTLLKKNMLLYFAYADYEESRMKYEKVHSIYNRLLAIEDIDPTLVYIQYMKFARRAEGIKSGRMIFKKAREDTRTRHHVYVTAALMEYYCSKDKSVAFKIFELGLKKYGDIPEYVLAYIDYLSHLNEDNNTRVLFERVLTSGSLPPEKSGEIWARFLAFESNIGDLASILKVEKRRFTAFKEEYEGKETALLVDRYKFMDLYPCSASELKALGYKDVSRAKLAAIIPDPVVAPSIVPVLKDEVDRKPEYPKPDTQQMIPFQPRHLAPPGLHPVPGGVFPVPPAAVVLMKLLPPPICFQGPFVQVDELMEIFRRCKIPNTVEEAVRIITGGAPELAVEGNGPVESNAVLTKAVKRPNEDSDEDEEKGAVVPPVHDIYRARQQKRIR
The assay is described as follows: condition: only conditions of CLIP using RIPA buffer; co-IP; conditions of CLIP: transfected HeLa cells UV-crosslinked, lysed in RIPA buffer, anti-Myc antibody (9E10); immunoblot.

Assay [2] addresses T1, CstF-77-Myc (human). The assay is described as follows: co-IP; anti-Myc antibody (9E10) on Dynabeads Protein G; pooled SLAP lysates of transfected HeLa cells diluted with 2 × NP-40 buffer (100 mM Tris–HCl pH 7.4, 300 mM NaCl, 2% NP-40); 4°C, 1 h; immunoblot. For orientation: A western blot detects proteins with antibodies after separation by electrophoresis.
A further assay concerns the target T2, CstF-77-Myc-dm77 (human) (UniProt Q12996).
T2 sequence: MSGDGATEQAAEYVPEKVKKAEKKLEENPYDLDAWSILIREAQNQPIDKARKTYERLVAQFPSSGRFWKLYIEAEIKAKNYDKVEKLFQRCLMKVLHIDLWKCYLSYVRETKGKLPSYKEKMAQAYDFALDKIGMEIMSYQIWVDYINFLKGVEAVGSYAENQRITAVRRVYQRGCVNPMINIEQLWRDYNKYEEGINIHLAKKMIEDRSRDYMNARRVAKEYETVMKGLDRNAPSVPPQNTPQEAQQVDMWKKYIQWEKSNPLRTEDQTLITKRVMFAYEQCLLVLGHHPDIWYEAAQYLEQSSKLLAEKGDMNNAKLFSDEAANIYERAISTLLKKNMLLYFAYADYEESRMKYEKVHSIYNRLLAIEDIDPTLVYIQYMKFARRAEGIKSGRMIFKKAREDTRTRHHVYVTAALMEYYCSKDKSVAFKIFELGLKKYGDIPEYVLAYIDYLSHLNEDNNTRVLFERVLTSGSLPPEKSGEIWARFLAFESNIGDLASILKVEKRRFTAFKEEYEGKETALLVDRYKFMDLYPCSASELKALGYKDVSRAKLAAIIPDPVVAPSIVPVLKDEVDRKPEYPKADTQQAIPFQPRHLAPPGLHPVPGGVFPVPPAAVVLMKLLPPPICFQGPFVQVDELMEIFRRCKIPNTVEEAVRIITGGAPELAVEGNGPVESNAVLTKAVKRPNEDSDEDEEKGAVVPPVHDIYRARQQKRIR
The description is as above.

Assay [3] deals with T3, CstF-77-Myc (human), Q12996.
T3 chain: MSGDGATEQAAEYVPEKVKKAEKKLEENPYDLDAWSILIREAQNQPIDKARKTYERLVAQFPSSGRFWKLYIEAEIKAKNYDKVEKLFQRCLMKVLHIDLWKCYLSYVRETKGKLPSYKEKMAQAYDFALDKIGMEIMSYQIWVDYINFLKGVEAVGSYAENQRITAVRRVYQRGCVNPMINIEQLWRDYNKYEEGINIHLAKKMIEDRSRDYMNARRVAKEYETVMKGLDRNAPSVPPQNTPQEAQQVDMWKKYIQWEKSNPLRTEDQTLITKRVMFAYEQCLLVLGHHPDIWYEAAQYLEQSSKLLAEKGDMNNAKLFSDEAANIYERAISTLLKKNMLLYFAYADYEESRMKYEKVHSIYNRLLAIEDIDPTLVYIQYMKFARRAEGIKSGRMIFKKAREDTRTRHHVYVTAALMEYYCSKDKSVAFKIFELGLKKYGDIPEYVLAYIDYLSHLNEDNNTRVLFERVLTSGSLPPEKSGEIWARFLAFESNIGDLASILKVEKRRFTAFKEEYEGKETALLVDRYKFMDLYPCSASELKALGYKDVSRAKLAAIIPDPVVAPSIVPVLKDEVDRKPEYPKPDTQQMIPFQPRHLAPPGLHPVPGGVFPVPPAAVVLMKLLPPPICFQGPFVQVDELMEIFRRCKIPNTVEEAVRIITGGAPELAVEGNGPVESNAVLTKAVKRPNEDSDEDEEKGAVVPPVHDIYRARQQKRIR
Described as above. Conditions: remark: other sources report otherwise.

Another assay concerns the target T4, CstF-77ΔM-Myc (human) (UniProt Q12996).
T4 sequence: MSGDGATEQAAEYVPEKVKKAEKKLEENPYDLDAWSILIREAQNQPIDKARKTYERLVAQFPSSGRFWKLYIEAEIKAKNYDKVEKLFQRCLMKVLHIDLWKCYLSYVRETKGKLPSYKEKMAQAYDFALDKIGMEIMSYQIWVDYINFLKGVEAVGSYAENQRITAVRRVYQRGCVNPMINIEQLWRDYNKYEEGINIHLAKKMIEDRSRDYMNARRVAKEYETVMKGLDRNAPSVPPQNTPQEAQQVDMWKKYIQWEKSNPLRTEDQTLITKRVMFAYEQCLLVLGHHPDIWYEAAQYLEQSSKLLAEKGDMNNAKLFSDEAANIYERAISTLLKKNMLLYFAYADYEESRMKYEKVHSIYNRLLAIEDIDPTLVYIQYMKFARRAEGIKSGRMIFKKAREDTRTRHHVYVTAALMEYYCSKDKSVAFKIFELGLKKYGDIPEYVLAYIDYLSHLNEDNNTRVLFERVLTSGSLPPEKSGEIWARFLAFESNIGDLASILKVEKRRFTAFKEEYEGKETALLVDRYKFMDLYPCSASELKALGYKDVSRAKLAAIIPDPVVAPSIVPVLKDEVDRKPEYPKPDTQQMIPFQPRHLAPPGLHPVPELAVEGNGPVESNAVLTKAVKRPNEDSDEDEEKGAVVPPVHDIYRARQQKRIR
The assay is described as above.

For assay [4], the target named is T5, CstF-77 MT (MT-CTD with the last 30 amino acids removed) (human) (UniProt Q12996).
T5 sequence: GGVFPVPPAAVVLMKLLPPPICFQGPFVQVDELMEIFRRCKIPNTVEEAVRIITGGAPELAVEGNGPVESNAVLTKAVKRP
The assay is described as follows: co-expression and co-purification, complex seen by 1H-15N HSQC NMR; bicistronic co-expression in E. coli; amylose resin by the MBP on the CstF-77 fragment, tags removed with TEV, HisTrap; HSQC in 10 mM phosphate buffer pH 6.0, 2 mM TCEP, 30°C.

In assay [5] the target is T6, CstF-77 MT-CTD (amino acids 607–717) (human) (UniProt Q12996).
T6 sequence: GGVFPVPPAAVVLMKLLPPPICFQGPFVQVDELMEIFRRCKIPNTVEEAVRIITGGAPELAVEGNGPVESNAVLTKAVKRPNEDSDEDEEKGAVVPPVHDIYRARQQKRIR
Described as above.

Results are given in words; binding and its absence hold for the method and conditions named. For some assays here: Binding seen in cells or lysates may run through a third protein. Some entries that bind do so weakly or less than the wild type. For some assays here: Sequences can lack the tags named with a protein.

B1: MCP-CstF-64 (protein, UniProt P33240 1-577)
chain: MAGLTVRDPAVDRSLRSVFVGNIPYEATEEQLKDIFSEVGPVVSFRLVYDRETGKPKGYGFCEYQDQETALSAMRNLNGREFSGRALRVDNAASEKNKEELKSLGTGAPVIESPYGETISPEDAPESISKAVASLPPEQMFELMKQMKLCVQNSPQEARNMLLQNPQLAYALLQAQVVMRIVDPEIALKILHRQTNIPTLIAGNPQPVHGAGPGSGSNVSMNQQNPQAPQAQSLGGMHVNGAPPLMQASMQGGVPAPGQMPAAVTGPGPGSLAPGGGMQAQVGMPGSGPVSMERGQVPMQDPRAAMQRGSLPANVPTPRGLLGDAPNDPRGGTLLSVTGEVEPRGYLGPPHQGPPMHHVPGHESRGPPPHELRGGPLPEPRPLMAEPRGPMLDQRGPPLDGRGGRDPRGIDARGMEARAMEARGLDARGLEARAMEARAMEARAMEARAMEARAMEVRGMEARGMDTRGPVPGPRGPIPSGMQGPSPINMGAVVPQGSRQVPVMQGTGMQGASIQGGSQPGGFSPGQNQVTPQDHEKAALIMQVLQLTADQIAMLPPEQRQSILILKEQIQKSTGAP
As for B1, the binding entry was “no binding” with CstF-77-Myc (human) [1] and “binds” with CstF-77-Myc (human) [2].

B2: endogenous CstF-50 (protein, UniProt Q05048 1-431)
chain: MYRTKVGLKDRQQLYKLIISQLLYDGYISIANGLINEIKPQSVCAPSEQLLHLIKLGMENDDTAVQYAIGRSDTVAPGTGIDLEFDADVQTMSPEASEYETCYVTSHKGPCRVATYSRDGQLIATGSADASIKILDTERMLAKSAMPIEVMMNETAQQNMENHPVIRTLYDHVDEVTCLAFHPTEQILASGSRDYTLKLFDYSKPSAKRAFKYIQEAEMLRSISFHPSGDFILVGTQHPTLRLYDINTFQCFVSCNPQDQHTDAICSVNYNSSANMYVTGSKDGCIKLWDGVSNRCITTFEKAHDGAEVCSAIFSKNSKYILSSGKDSVAKLWEISTGRTLVRYTGAGLSGRQVHRTQAVFNHTEDYVLLPDERTISLCCWDSRTAERRNLLSLGHNNIVRCIVHSPTNPGFMTCSDDFRARFWYRRSTTD
Regarding B2, the binding result is on record as “binds” with CstF-77-Myc (human) [2] and “no binding” in the assay with CstF-77-Myc-dm77 (human).

B3: endogenous CstF-77, Q12996 1-717 (protein)
chain: MSGDGATEQAAEYVPEKVKKAEKKLEENPYDLDAWSILIREAQNQPIDKARKTYERLVAQFPSSGRFWKLYIEAEIKAKNYDKVEKLFQRCLMKVLHIDLWKCYLSYVRETKGKLPSYKEKMAQAYDFALDKIGMEIMSYQIWVDYINFLKGVEAVGSYAENQRITAVRRVYQRGCVNPMINIEQLWRDYNKYEEGINIHLAKKMIEDRSRDYMNARRVAKEYETVMKGLDRNAPSVPPQNTPQEAQQVDMWKKYIQWEKSNPLRTEDQTLITKRVMFAYEQCLLVLGHHPDIWYEAAQYLEQSSKLLAEKGDMNNAKLFSDEAANIYERAISTLLKKNMLLYFAYADYEESRMKYEKVHSIYNRLLAIEDIDPTLVYIQYMKFARRAEGIKSGRMIFKKAREDTRTRHHVYVTAALMEYYCSKDKSVAFKIFELGLKKYGDIPEYVLAYIDYLSHLNEDNNTRVLFERVLTSGSLPPEKSGEIWARFLAFESNIGDLASILKVEKRRFTAFKEEYEGKETALLVDRYKFMDLYPCSASELKALGYKDVSRAKLAAIIPDPVVAPSIVPVLKDEVDRKPEYPKPDTQQMIPFQPRHLAPPGLHPVPGGVFPVPPAAVVLMKLLPPPICFQGPFVQVDELMEIFRRCKIPNTVEEAVRIITGGAPELAVEGNGPVESNAVLTKAVKRPNEDSDEDEEKGAVVPPVHDIYRARQQKRIR
For B3, the binding result in assay [3] is listed as “binds”.

B4: endogenous CstF-77 (protein, UniProt Q12996 1-717)
chain: MSGDGATEQAAEYVPEKVKKAEKKLEENPYDLDAWSILIREAQNQPIDKARKTYERLVAQFPSSGRFWKLYIEAEIKAKNYDKVEKLFQRCLMKVLHIDLWKCYLSYVRETKGKLPSYKEKMAQAYDFALDKIGMEIMSYQIWVDYINFLKGVEAVGSYAENQRITAVRRVYQRGCVNPMINIEQLWRDYNKYEEGINIHLAKKMIEDRSRDYMNARRVAKEYETVMKGLDRNAPSVPPQNTPQEAQQVDMWKKYIQWEKSNPLRTEDQTLITKRVMFAYEQCLLVLGHHPDIWYEAAQYLEQSSKLLAEKGDMNNAKLFSDEAANIYERAISTLLKKNMLLYFAYADYEESRMKYEKVHSIYNRLLAIEDIDPTLVYIQYMKFARRAEGIKSGRMIFKKAREDTRTRHHVYVTAALMEYYCSKDKSVAFKIFELGLKKYGDIPEYVLAYIDYLSHLNEDNNTRVLFERVLTSGSLPPEKSGEIWARFLAFESNIGDLASILKVEKRRFTAFKEEYEGKETALLVDRYKFMDLYPCSASELKALGYKDVSRAKLAAIIPDPVVAPSIVPVLKDEVDRKPEYPKPDTQQMIPFQPRHLAPPGLHPVPGGVFPVPPAAVVLMKLLPPPICFQGPFVQVDELMEIFRRCKIPNTVEEAVRIITGGAPELAVEGNGPVESNAVLTKAVKRPNEDSDEDEEKGAVVPPVHDIYRARQQKRIR
Consider B4, for which, in the assay with CstF-77ΔM-Myc (human), the binding result is “no binding”.

B5: CstF-64 RRM-Hinge (amino acids 1–195) (domain or fragment, UniProt P33240 1-195)
chain: MAGLTVRDPAVDRSLRSVFVGNIPYEATEEQLKDIFSEVGPVVSFRLVYDRETGKPKGYGFCEYQDQETALSAMRNLNGREFSGRALRVDNAASEKNKEELKSLGTGAPVIESPYGETISPEDAPESISKAVASLPPEQMFELMKQMKLCVQNSPQEARNMLLQNPQLAYALLQAQVVMRIVDPEIALKILHRQT
For the molecule B5, the binding result in assay [4] and in assay [5] was “binds” in each case.
